{"source": "the supplement of paper PMC8728848", "binders": {"B1": {"name": "CML1 (Coprinopsis cinerea) (protein)", "chain": "MAIFHTGSELFIITRGPGKLTLLTWGGLNNLRSVIGAIPTENTGVTKWAVSFSHNYTRFSFIWEGQGEACYQIGNGLTRSPVGRSWSSSSTIHWGSSTVITEDVTSVVPGAVNRDKVTTAYALPDNL"}}, "assay_in_all_cases": "glycan array binding signal (z-score within array); higher = stronger binding", "details_in_all_cases": "glycan notation: IUPAC condensed, linker removed", "key": {"GalNAc(b1-4)GlcNAc": {"biological_target": "GalNAc(b1-4)GlcNAc", "how_it_was_run": "(§1)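 Glycan array data were curated from 3228 arrays in the Consortium for Functional Glycomics database and kept only where the protein sequence was available. Glycan names were converted to IUPAC-condensed notation, and columns mapping to the same glycan were averaged. The binding signal is a within-array Z-score, averaged across arrays of the same protein sequence at different concentrations or buffers and across linkers. Negative Z-scores can be read as non-binding.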"}, "[1]": {"biological_target": "GalNAc(b1-4)GlcNAc(b1-2)Man", "how_it_was_run": "as §1"}, "[2]": {"biological_target": "GalNAc(b1-4)GlcNAc(b1-2)Man(a1-3)[GalNAc(b1-4)GlcNAc(b1-2)Man(a1-6)]Man(b1-4)GlcNAc(b1-4)GlcNAc", "how_it_was_run": "as §1"}, "[3]": {"biological_target": "GalNAc(b1-4)GlcNAc(b1-3)GalNAc(b1-4)GlcNAc", "how_it_was_run": "as §1"}, "GalNAc(b1-4)GlcNAc6S": {"biological_target": "GalNAc(b1-4)GlcNAc6S", "how_it_was_run": "as §1"}, "GalNAc(b1-6)GalNAc": {"biological_target": "GalNAc(b1-6)GalNAc", "how_it_was_run": "as §1"}, "GalNAc3S(b1-4)GlcNAc": {"biological_target": "GalNAc3S(b1-4)GlcNAc", "how_it_was_run": "as §1"}, "GalNAc3S(b1-4)GlcNAc3S": {"biological_target": "GalNAc3S(b1-4)GlcNAc3S", "how_it_was_run": "as §1"}, "[4]": {"biological_target": "GalNAc3S(b1-4)[Fuc(a1-3)]GlcNAc", "how_it_was_run": "as §1"}, "GalNAc4S6S(b1-4)GlcNAc": {"biological_target": "GalNAc4S6S(b1-4)GlcNAc", "how_it_was_run": "as §1"}, "GalNAc6S(b1-4)GlcNAc": {"biological_target": "GalNAc6S(b1-4)GlcNAc", "how_it_was_run": "as §1"}, "Glc(a1-4)Glc": {"biological_target": "Glc(a1-4)Glc", "how_it_was_run": "as §1"}, "[5]": {"biological_target": "Glc(a1-4)Glc(a1-4)Glc(a1-4)Glc", "how_it_was_run": "as §1"}, "Glc(a1-6)Glc(a1-6)Glc": {"biological_target": "Glc(a1-6)Glc(a1-6)Glc", "how_it_was_run": "as §1"}, "[6]": {"biological_target": "Glc(a1-6)Glc(a1-6)Glc(a1-6)Glc", "how_it_was_run": "as §1"}, "Glc(b1-4)Glc": {"biological_target": "Glc(b1-4)Glc", "how_it_was_run": "as §1"}, "Glc(b1-6)Glc": {"biological_target": "Glc(b1-6)Glc", "how_it_was_run": "as §1"}, "GlcA(b1-3)Gal": {"biological_target": "GlcA(b1-3)Gal", "how_it_was_run": "as §1"}, "GlcA(b1-3)GlcNAc": {"biological_target": "GlcA(b1-3)GlcNAc", "how_it_was_run": "as §1"}, "GlcA(b1-6)Gal": {"biological_target": "GlcA(b1-6)Gal", "how_it_was_run": "as §1"}, "[7]": {"biological_target": "GlcA3S(b1-3)Gal(b1-4)GlcNAc(b1-2)Man", "how_it_was_run": "as §1"}, "[8]": {"biological_target": "GlcA3S(b1-3)Gal(b1-4)GlcNAc(b1-3)Gal(b1-4)Glc", "how_it_was_run": "as §1"}, "[9]": {"biological_target": "GlcNAc(a1-3)Gal(b1-4)GlcNAc", "how_it_was_run": "as §1"}, "[10]": {"biological_target": "GlcNAc(a1-4)Gal(b1-3)GlcNAc", "how_it_was_run": "as §1"}, "[11]": {"biological_target": "GlcNAc(a1-4)Gal(b1-4)GalNAc", "how_it_was_run": "as §1"}, "[12]": {"biological_target": "GlcNAc(a1-4)Gal(b1-4)GlcNAc", "how_it_was_run": "as §1"}, "[13]": {"biological_target": "GlcNAc(a1-4)Gal(b1-4)GlcNAc(b1-3)Gal(b1-4)Glc", "how_it_was_run": "as §1"}, "[14]": {"biological_target": "GlcNAc(a1-4)Gal(b1-4)GlcNAc(b1-3)Gal(b1-4)GlcNAc", "how_it_was_run": "as §1"}, "[15]": {"biological_target": "GlcNAc(a1-4)Gal(b1-4)GlcNAc(b1-3)Gal(b1-4)GlcNAc(b1-3)Gal(b1-4)GlcNAc", "how_it_was_run": "as §1"}, "[16]": {"biological_target": "GlcNAc(a1-4)Gal(b1-4)GlcNAc(b1-3)Gal(b1-4)[Fuc(a1-3)]GlcNAc(b1-3)Gal(b1-4)[Fuc(a1-3)]GlcNAc", "how_it_was_run": "as §1"}, "[17]": {"biological_target": "GlcNAc(a1-6)Gal(b1-4)GlcNAc", "how_it_was_run": "as §1"}, "[18]": {"biological_target": "GlcNAc(b1-2)Gal(b1-3)GalNAc", "how_it_was_run": "as §1"}, "[19]": {"biological_target": "GlcNAc(b1-2)Man(a1-3)[GlcNAc(b1-2)Man(a1-6)]Man(b1-4)GlcNAc(b1-4)GlcNAc", "how_it_was_run": "as §1"}, "[20]": {"biological_target": "GlcNAc(b1-2)Man(a1-3)[GlcNAc(b1-2)Man(a1-6)]Man(b1-4)GlcNAc(b1-4)[Fuc(a1-6)]GlcNAc", "how_it_was_run": "as §1"}, "[21]": {"biological_target": "GlcNAc(b1-2)Man(a1-3)[GlcNAc(b1-4)][GlcNAc(b1-2)Man(a1-6)]Man(b1-4)GlcNAc(b1-4)GlcNAc", "how_it_was_run": "as §1"}, "[22]": {"biological_target": "GlcNAc(b1-2)Man(a1-3)[GlcNAc(b1-4)][GlcNAc(b1-2)Man(a1-6)]Man(b1-4)GlcNAc(b1-4)[Fuc(a1-6)]GlcNAc", "how_it_was_run": "as §1"}, "[23]": {"biological_target": "GlcNAc(b1-2)[GlcNAc(b1-4)]Man(a1-3)[GlcNAc(b1-2)Man(a1-6)]Man(b1-4)GlcNAc(b1-4)GlcNAc", "how_it_was_run": "as §1"}, "[24]": {"biological_target": "GlcNAc(b1-2)[GlcNAc(b1-4)]Man(a1-3)[GlcNAc(b1-4)][GlcNAc(b1-2)Man(a1-6)]Man(b1-4)GlcNAc(b1-4)GlcNAc", "how_it_was_run": "as §1"}, "[25]": {"biological_target": "GlcNAc(b1-2)[GlcNAc(b1-4)]Man(a1-3)[GlcNAc(b1-4)][GlcNAc(b1-2)[GlcNAc(b1-6)]Man(a1-6)]Man(b1-4)GlcNAc(b1-4)GlcNAc", "how_it_was_run": "as §1"}, "[26]": {"biological_target": "GlcNAc(b1-2)[GlcNAc(b1-4)]Man(a1-3)[GlcNAc(b1-4)][GlcNAc(b1-2)[GlcNAc(b1-6)]Man(a1-6)]Man(b1-4)GlcNAc(b1-4)[Fuc(a1-6)]GlcNAc", "how_it_was_run": "as §1"}, "[27]": {"biological_target": "GlcNAc(b1-2)[GlcNAc(b1-6)]Man(a1-6)[GlcNAc(b1-2)Man(a1-3)]Man(b1-4)GlcNAc(b1-4)GlcNAc", "how_it_was_run": "as §1"}, "[28]": {"biological_target": "GlcNAc(b1-2)[GlcNAc(b1-6)]Man(a1-6)[GlcNAc(b1-2)Man(a1-3)]Man(b1-4)GlcNAc(b1-4)[Fuc(a1-6)]GlcNAc", "how_it_was_run": "as §1"}, "[29]": {"biological_target": "GlcNAc(b1-2)[GlcNAc(b1-6)]Man(a1-6)[GlcNAc(b1-4)][GlcNAc(b1-2)Man(a1-3)]Man(b1-4)GlcNAc(b1-4)GlcNAc", "how_it_was_run": "as §1"}, "GlcNAc(b1-3)Fuc": {"biological_target": "GlcNAc(b1-3)Fuc", "how_it_was_run": "as §1"}, "GlcNAc(b1-3)Gal": {"biological_target": "GlcNAc(b1-3)Gal", "how_it_was_run": "as §1"}}, "note": "Some of the results follow.", "data": [{"binder": "B1", "values": [{"measurement": "glycan array binding signal (z-score)", "setting": "GalNAc(b1-4)GlcNAc", "result": -0.334}, {"measurement": "glycan array binding signal (z-score)", "setting": "[1]", "result": -0.349}, {"measurement": "glycan array binding signal (z-score)", "setting": "[2]", "result": -0.341}, {"measurement": "glycan array binding signal (z-score)", "setting": "[3]", "result": -0.315}, {"measurement": "glycan array binding signal (z-score)", "setting": "GalNAc(b1-4)GlcNAc6S", "result": -0.33}, {"measurement": "glycan array binding signal (z-score)", "setting": "GalNAc(b1-6)GalNAc", "result": -0.362}, {"measurement": "glycan array binding signal (z-score)", "setting": "GalNAc3S(b1-4)GlcNAc", "result": -0.328}, {"measurement": "glycan array binding signal (z-score)", "setting": "GalNAc3S(b1-4)GlcNAc3S", "result": -0.331}, {"measurement": "glycan array binding signal (z-score)", "setting": "[4]", "result": 2.75}, {"measurement": "glycan array binding signal (z-score)", "setting": "GalNAc4S6S(b1-4)GlcNAc", "result": -0.313}, {"measurement": "glycan array binding signal (z-score)", "setting": "GalNAc6S(b1-4)GlcNAc", "result": -0.34}, {"measurement": "glycan array binding signal (z-score)", "setting": "Glc(a1-4)Glc", "result": -0.34}, {"measurement": "glycan array binding signal (z-score)", "setting": "[5]", "result": -0.306}, {"measurement": "glycan array binding signal (z-score)", "setting": "Glc(a1-6)Glc(a1-6)Glc", "result": -0.322}, {"measurement": "glycan array binding signal (z-score)", "setting": "[6]", "result": -0.329}, {"measurement": "glycan array binding signal (z-score)", "setting": "Glc(b1-4)Glc", "result": -0.358}, {"measurement": "glycan array binding signal (z-score)", "setting": "Glc(b1-6)Glc", "result": -0.356}, {"measurement": "glycan array binding signal (z-score)", "setting": "GlcA(b1-3)Gal", "result": -0.323}, {"measurement": "glycan array binding signal (z-score)", "setting": "GlcA(b1-3)GlcNAc", "result": -0.349}, {"measurement": "glycan array binding signal (z-score)", "setting": "GlcA(b1-6)Gal", "result": -0.335}, {"measurement": "glycan array binding signal (z-score)", "setting": "[7]", "result": -0.329}, {"measurement": "glycan array binding signal (z-score)", "setting": "[8]", "result": -0.337}, {"measurement": "glycan array binding signal (z-score)", "setting": "[9]", "result": -0.336}, {"measurement": "glycan array binding signal (z-score)", "setting": "[10]", "result": -0.343}, {"measurement": "glycan array binding signal (z-score)", "setting": "[11]", "result": -0.34}, {"measurement": "glycan array binding signal (z-score)", "setting": "[12]", "result": -0.321}, {"measurement": "glycan array binding signal (z-score)", "setting": "[13]", "result": -0.323}, {"measurement": "glycan array binding signal (z-score)", "setting": "[14]", "result": -0.344}, {"measurement": "glycan array binding signal (z-score)", "setting": "[15]", "result": -0.336}, {"measurement": "glycan array binding signal (z-score)", "setting": "[16]", "result": 0.07}, {"measurement": "glycan array binding signal (z-score)", "setting": "[17]", "result": -0.32}, {"measurement": "glycan array binding signal (z-score)", "setting": "[18]", "result": -0.347}, {"measurement": "glycan array binding signal (z-score)", "setting": "[19]", "result": -0.344}, {"measurement": "glycan array binding signal (z-score)", "setting": "[20]", "result": -0.33}, {"measurement": "glycan array binding signal (z-score)", "setting": "[21]", "result": -0.362}, {"measurement": "glycan array binding signal (z-score)", "setting": "[22]", "result": -0.35}, {"measurement": "glycan array binding signal (z-score)", "setting": "[23]", "result": -0.32}, {"measurement": "glycan array binding signal (z-score)", "setting": "[24]", "result": -0.342}, {"measurement": "glycan array binding signal (z-score)", "setting": "[25]", "result": -0.343}, {"measurement": "glycan array binding signal (z-score)", "setting": "[26]", "result": -0.363}, {"measurement": "glycan array binding signal (z-score)", "setting": "[27]", "result": -0.334}, {"measurement": "glycan array binding signal (z-score)", "setting": "[28]", "result": -0.332}, {"measurement": "glycan array binding signal (z-score)", "setting": "[29]", "result": -0.339}, {"measurement": "glycan array binding signal (z-score)", "setting": "GlcNAc(b1-3)Fuc", "result": -0.306}, {"measurement": "glycan array binding signal (z-score)", "setting": "GlcNAc(b1-3)Gal", "result": -0.333}]}]}
